Source: PubChem BioAssay (Tox21)
Where “and” joins values, the source holds several entries; their conditions need not be identical. Identical values can stand only once. Inconclusive means that the source gave no clear call. Such entries were picked first, then a sample of the others. Potencies beside an inconclusive call are fits to weak or partial responses and may not hold up. Calls of active or inactive are those of the source. Unless noted, calls come from the whole dose curve; as a rule, active = well fitted curve in the direction sought with a large enough effect in the repeat runs; inconclusive = weak or mixed curves; inactive = no such curve, though single readings can be large; an effect the other way counts as inactive or inconclusive.

Assays:
[1] = biological target: Peroxisome proliferator-activated receptor gamma (Homo sapiens) (UniProt P37231); test: qHTS assay to identify small molecule antagonists of the peroxisome proliferator-activated receptor gamma (PPARg) signaling pathway (AID 743191; calls by dose curve; note: nearly all actives have a fitted effect of over 30% in size; for ratio activity, negative = inhibition: % is set by controls: 0 for no effect and ±100 for the full control effect); conditions: HEK293H PPARg-UAS-bla, beta-lactamase ratio, antagonist, 17 h; ratio activity, negative = inhibition: at 62.6 µM (top of the series) unless noted
Outline: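 GeneBLAzer PPARg UAS-bla HEK293H cells carrying a UAS-driven beta-lactamase reporter were plated at 3000 cells/well, preincubated 5 h at 37C, then given compound for 17 h at 37C; LiveBLAzer B/G FRET substrate was read after 1 h at room temperature.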

[2] = qHTS assay for small molecule agonists of the antioxidant response element (ARE) signaling pathway (AID 743202; active = well fitted activation curve with a large enough effect in the signal ratio in the repeat runs, not every such curve was filed as active; inconclusive = weak or mixed curves, or effect the other way; inactive = no such curve, though single readings can be large or run the other way; the % refers to the signal ratio); conditions: HepG2 ARE-bla reporter, beta-lactamase FRET, 16 h; activation: at 73.3 µM (top of the series) unless noted
Outline: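 Read-out: LiveBLAzer B/G FRET substrate fluorescence after 2 h at room temperature, following 16 h compound treatment at 37 C of HepG2 cells carrying an ARE-driven beta-lactamase reporter.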

[3] = qHTS assay for small molecule agonists of the antioxidant response element (ARE) signaling pathway - cell viability counter screen (AID 743203; calls by dose curve; note: nearly all actives have a fitted effect of over 55% in size)
Outline: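 Cells (ARE-bla HepG2, 2,000/well) receive DMSO-dissolved compounds after a 5 hrs rest. Plates incubate 16 hrs at 37C/5% CO2. CellTiter-Glo luminescence is then recorded after 30 min at room temperature.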

[4] = qHTS assay for small molecule activators of the heat shock response signaling pathway (AID 743210; active = well fitted activation curve with a large enough effect in the signal ratio in the repeat runs, with a control signal flat, not every such curve was filed as active; inconclusive = weak or mixed curves; the % refers to the signal ratio); conditions: HeLa HSE-bla reporter, beta-lactamase ratio, 5 h; activation: at 62.6 µM (top of the series)
Outline: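 HSE-bla HeLa cells (beta-lactamase reporter under heat shock response elements) were exposed to compounds for 5 h at 37 C, then loaded with LiveBLAzer B/G FRET substrate for 2.5 h at room temperature before fluorescence reading.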

[5] = qHTS assay to identify small molecule agonists of the peroxisome proliferator-activated receptor delta (PPARd) signaling pathway - cell viability counter screen (AID 743211); conditions: PPARd-bla HEK293H viability, CellTiter-Glo luminescence, 17 h; activity change, negative = cytotoxicity: at 62.6 µM (top of the series) unless noted; note: nearly all actives have a fitted effect of over 55% in size
Outline: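 Counter screen for cytotoxicity run in parallel with the PPARd reporter screen. Beta-lactamase reporter HEK293H cells exposed to compounds 17 h; ATP-based CellTiter-Glo luminescence quantified viability.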

[6] = qHTS assay to identify small molecule antagonists of the peroxisome proliferator-activated receptor delta (PPARd) signaling pathway - cell viability counter screen (AID 743213); conditions: PPARd-bla HEK293H viability, CellTiter-Glo luminescence, 17 h; viability change, negative = cytotoxic: at 62 µM (top of the series) unless noted; note: nearly all actives have a fitted effect of over 50% in size
Outline: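 Luminescence from CellTiter-Glo, added after the bla read and incubated 30 min at room temperature, gives viability of HEK293H PPARd-bla cells exposed to compounds for 17 h at 37 C with 300 nM L165041.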

[7] = biological target: Peroxisome proliferator-activated receptor delta (Homo sapiens) (UniProt Q03181); test: qHTS assay to identify small molecule antagonists of the peroxisome proliferator-activated receptor delta (PPARd) signaling pathway (AID 743215; active = well fitted inhibition curve with a large enough effect in the signal ratio in the repeat runs, not every such curve was filed as active; inconclusive = weak or mixed curves, or effect the other way; inactive = no such curve, though single readings can be large or run the other way; the % refers to the signal ratio;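 note: cells stimulated with agonist L165041 at 300 nM final during compound exposure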); conditions: HEK293H PPARd-UAS-bla, beta-lactamase FRET ratio, antagonist, 17 h; ratio activity, negative = inhibition: at 62 µM (top of the series) unless noted
Outline: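 Antagonist-mode beta-lactamase reporter screen: HEK293H cells with UAS-bla under PPARd control, stimulated by 300 nM L165041 (final) alongside test compound for 17 h at 37 C, then FRET fluorescence after 2 h substrate incubation.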

[8] = biological target: Bile acid receptor (Homo sapiens) (UniProt Q96RI1); test: qHTS assay to identify small molecule antagonists of the farnesoid-X-receptor (FXR) signaling pathway (AID 743217; active = well fitted inhibition curve with a large enough effect in the signal ratio in the repeat runs, not every such curve was filed as active; inconclusive = weak or mixed curves, or effect the other way; inactive = no such curve, though single readings can be large or run the other way; the % refers to the signal ratio; for activity change, negative = inhibition: % is set by controls: 0 for no effect and ±100 for the full control effect); conditions: HEK293T FXR-UAS-bla, beta-lactamase ratio, CDCA-stimulated, 16 h; activity change, negative = inhibition: at 62.6 µM (top of the series) unless noted
Outline: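 Beta-lactamase reporter under UAS control in HEK 293T cells; compound exposure 16 h at 37 °C in the presence of chenodeoxycholic acid (50 uM final); signal from B/G FRET substrate after 2 h at room temperature.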

[9] = biological target: Vitamin D3 receptor (Homo sapiens) (UniProt P11473); test: qHTS assay to identify small molecule antagonists of the vitamin D receptor (VDR) signaling pathway (AID 743223; active = well fitted inhibition curve with a large enough effect in the signal ratio in the repeat runs, not every such curve was filed as active; inconclusive = weak or mixed curves, or effect the other way; inactive = no such curve, though single readings can be large or run the other way; the % refers to the signal ratio; for activity change, negative = inhibition: % is set by controls: 0 for no effect and ±100 for the full control effect); conditions: VDR-UAS-bla HEK293T, beta-lactamase FRET ratio, 16 h; activity change, negative = inhibition: at 61 µM (top of the series) unless noted
Outline: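 Cells carrying a VDR-driven beta-lactamase reporter (VDR-bla) were co-treated with compound and 3 nM final 1alpha,25-dihydroxyvitamin D3 for 16 h at 37C; reporter activity was measured as FRET substrate fluorescence after 2 h at room temperature.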

[10] = qHTS assay to identify small molecule agonists of the vitamin D receptor (VDR) signaling pathway - cell viability counter screen (AID 743224); note: nearly all actives have a fitted effect of over 50% in size
Outline: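 VDR-bla cell line, quantitative HTS format; 16 h compound incubation (37C, 5% CO2); ATP-based CellTiter-Glo luminescence measured in the reporter assay wells.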

[11] = qHTS assay to identify small molecule antagonists of the vitamin D receptor (VDR) signaling pathway - cell viability counter screen (AID 743225); conditions: VDR-bla HEK293T viability, CellTiter-Glo luminescence, 16 h; viability change, negative = cytotoxic: at 61 µM (top of the series) unless noted; note: nearly all actives have a fitted effect of over 50% in size
Outline: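 HEK293T VDR-bla; cpd + 1a,25-(OH)2D3 3 nM final, 16 h 37C/5% CO2; B/G FRET substrate 2 h RT; then CellTiter-Glo 30 min RT, luminescence.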

[12] = qHTS assay to identify small molecule agonists of the NFkB signaling pathway - cell viability counter screen (AID 1159515; calls by dose curve; note: nearly all actives have a fitted effect of over 55% in size)
Outline: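 Viability in NFkB-bla ME-180 cells was measured by CellTiter-Glo luminescence, 30 min room temperature, in wells already treated 5 hr with compounds and read for reporter FRET.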

[13] = qHTS assay to identify small molecule agonists of the endoplasmic reticulum stress response signaling pathway (AID 1159516; active = well fitted activation curve with a large enough effect in the signal ratio in the repeat runs, not every such curve was filed as active; inconclusive = weak or mixed curves, or effect the other way; the % refers to the signal ratio); conditions: ESRE-bla HeLa, ER stress beta-lactamase reporter, 5 h; activation: at 61 µM (top of the series) unless noted
Outline: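 ER stress element reporter (bla) in HeLa. 1,500 cells/well, overnight attachment; 5 hr compound; 2 hr RT substrate; dual-emission fluorescence.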

[14] = qHTS assay to identify small molecule antagonists of the peroxisome proliferator-activated receptor gamma (PPARg) signaling pathway - cell viability counter screen (AID 743194); conditions: PPARg-bla HEK293H viability, CellTiter-Glo luminescence, 17 h; Potency: co-treated with 50 nM rosiglitazone unless noted; activity change, negative = cytotoxicity: at 62.6 µM (top of the series), co-treated with 50 nM rosiglitazone unless noted; note: nearly all actives have a fitted effect of over 55% in size
Outline: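 PPARg-UAS-bla HEK293H cells were plated, rested 5 h at 37 C, then treated with compounds plus rosiglitazone (50 nM final) for 17 h at 37 C; viability was then read by CellTiter-Glo luminescence after 30 min at room temperature.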

[15] = qHTS assay for small molecule activators of the heat shock response signaling pathway - cell viability counter screen (AID 743209); conditions: HSE-bla HeLa viability, CellTiter-Glo luminescence, 5 h; activity change, negative = cytotoxicity: at 62.6 µM (top of the series) unless noted; note: nearly all actives have a fitted effect of over 50% in size; for activity change, negative = cytotoxicity: % is set by controls: 0 for no effect and ±100 for the full control effect
Outline: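 Quantitative HTS format, Tox21 10K library. HeLa cells carrying an HSE-driven beta-lactamase reporter were treated 5 h at 37 C, then assessed for viability by CellTiter-Glo luminescence.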

[16] = biological target: Peroxisome proliferator-activated receptor delta (Homo sapiens) (UniProt Q03181); test: qHTS assay to identify small molecule agonists of the peroxisome proliferator-activated receptor delta (PPARd) signaling pathway (AID 743212; calls by dose curve); conditions: HEK293H PPARd-UAS-bla, beta-lactamase FRET ratio, 17 h; activation: at 62.6 µM (top of the series) unless noted
Outline: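 GeneBLAzer PPARd UAS-bla HEK293H cells (beta-lactamase reporter under UAS control), plated and rested 5 h at 37 C, then exposed to compounds in DMSO at 37 C; LiveBLAzer B/G FRET substrate added, 2 h room temperature, fluorescence read.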

[17] = qHTS assay to identify small molecule agonists of the farnesoid-X-receptor (FXR) signaling pathway - cell viability counter screen (AID 743218); conditions: FXR-bla HEK293T viability, CellTiter-Glo luminescence, 16 h; viability change, negative = cytotoxic: at 62.6 µM (top of the series) unless noted; note: nearly all actives have a fitted effect of over 45% in size
Outline: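 In GeneBLAzer FXR-UAS-bla HEK 293T cells, compounds act for 16 h at 37 C. Cell viability is then scored in the reporter wells by CellTiter-Glo, 30 min at RT, luminescence.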

[18] = biological target: Vitamin D3 receptor (Homo sapiens) (UniProt P11473); test: qHTS assay to identify small molecule agonists of the vitamin D receptor (VDR) signaling pathway (AID 743222; calls by dose curve); conditions: HEK293T VDR-UAS-bla, beta-lactamase FRET ratio, 16 h; activation: at 63.5 µM (top of the series) unless noted
Outline: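 Agonist activity measured in VDR-bla reporter cells. Exposure 16 h, 37C, 5% CO2; detection by B/G FRET substrate, 2 h RT.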

[19] = biological target: Bile acid receptor (Homo sapiens) (UniProt Q96RI1); test: qHTS assay to identify small molecule agonists of the farnesoid-X-receptor (FXR) signaling pathway (AID 743220; active = well fitted activation curve with a large enough effect in the signal ratio in the repeat runs, not every such curve was filed as active; inconclusive = weak or mixed curves, or effect the other way; the % refers to the signal ratio); conditions: HEK293T FXR-UAS-bla, beta-lactamase FRET ratio, 16 h; activation: at 62.6 µM (top of the series) unless noted
Outline: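 Beta-lactamase reporter under UAS control in GeneBLAzer FXR HEK 293T cells (5000/well) measured with LiveBLAzer FRET substrate after 2 h at room temperature. Compound exposure lasted 16 h at 37C.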
Potency is the fitted concentration of half-maximal effect; tags give direction and shape of the fitted curve or compound fluorescence and quenching.

UniProt Q03181, sequence (Q03181 whole entry, looked up): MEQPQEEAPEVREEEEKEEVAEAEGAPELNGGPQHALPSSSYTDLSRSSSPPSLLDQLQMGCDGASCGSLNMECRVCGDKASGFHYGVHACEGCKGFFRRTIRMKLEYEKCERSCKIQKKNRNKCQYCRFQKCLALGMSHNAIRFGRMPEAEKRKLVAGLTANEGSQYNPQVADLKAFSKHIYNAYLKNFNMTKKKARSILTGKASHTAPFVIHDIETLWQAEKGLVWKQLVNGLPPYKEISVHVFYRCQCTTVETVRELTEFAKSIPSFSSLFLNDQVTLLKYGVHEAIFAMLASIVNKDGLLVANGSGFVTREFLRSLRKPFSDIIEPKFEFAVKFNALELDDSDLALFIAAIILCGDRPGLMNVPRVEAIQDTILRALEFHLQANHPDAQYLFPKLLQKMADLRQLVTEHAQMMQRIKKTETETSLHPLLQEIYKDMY
UniProt P37231, sequence (P37231 whole entry, looked up): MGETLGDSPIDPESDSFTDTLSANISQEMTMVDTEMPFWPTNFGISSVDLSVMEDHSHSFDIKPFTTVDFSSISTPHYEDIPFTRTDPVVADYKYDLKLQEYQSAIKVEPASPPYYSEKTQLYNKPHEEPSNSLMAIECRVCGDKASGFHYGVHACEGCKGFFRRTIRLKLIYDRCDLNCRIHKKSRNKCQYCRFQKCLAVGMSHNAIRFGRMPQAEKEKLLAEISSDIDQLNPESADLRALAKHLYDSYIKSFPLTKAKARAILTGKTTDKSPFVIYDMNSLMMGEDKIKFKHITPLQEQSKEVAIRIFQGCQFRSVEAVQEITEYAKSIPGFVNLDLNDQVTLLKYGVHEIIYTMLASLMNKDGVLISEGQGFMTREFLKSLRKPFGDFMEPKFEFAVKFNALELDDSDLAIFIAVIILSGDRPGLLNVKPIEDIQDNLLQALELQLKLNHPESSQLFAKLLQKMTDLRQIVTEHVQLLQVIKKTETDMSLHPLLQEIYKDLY
UniProt P11473, sequence (P11473 whole entry, looked up): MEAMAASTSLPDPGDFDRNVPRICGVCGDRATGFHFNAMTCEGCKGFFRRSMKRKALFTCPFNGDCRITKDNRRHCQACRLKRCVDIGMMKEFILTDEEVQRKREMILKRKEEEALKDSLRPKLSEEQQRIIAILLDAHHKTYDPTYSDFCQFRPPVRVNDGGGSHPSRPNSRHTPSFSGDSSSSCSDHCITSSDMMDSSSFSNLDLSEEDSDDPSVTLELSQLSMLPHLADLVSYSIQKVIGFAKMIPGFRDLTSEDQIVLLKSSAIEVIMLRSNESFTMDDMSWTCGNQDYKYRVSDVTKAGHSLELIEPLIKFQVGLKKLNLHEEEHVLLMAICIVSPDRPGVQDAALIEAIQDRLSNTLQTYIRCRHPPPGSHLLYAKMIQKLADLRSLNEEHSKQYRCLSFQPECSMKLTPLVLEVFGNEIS
UniProt Q96RI1, sequence (Q96RI1 whole entry, looked up): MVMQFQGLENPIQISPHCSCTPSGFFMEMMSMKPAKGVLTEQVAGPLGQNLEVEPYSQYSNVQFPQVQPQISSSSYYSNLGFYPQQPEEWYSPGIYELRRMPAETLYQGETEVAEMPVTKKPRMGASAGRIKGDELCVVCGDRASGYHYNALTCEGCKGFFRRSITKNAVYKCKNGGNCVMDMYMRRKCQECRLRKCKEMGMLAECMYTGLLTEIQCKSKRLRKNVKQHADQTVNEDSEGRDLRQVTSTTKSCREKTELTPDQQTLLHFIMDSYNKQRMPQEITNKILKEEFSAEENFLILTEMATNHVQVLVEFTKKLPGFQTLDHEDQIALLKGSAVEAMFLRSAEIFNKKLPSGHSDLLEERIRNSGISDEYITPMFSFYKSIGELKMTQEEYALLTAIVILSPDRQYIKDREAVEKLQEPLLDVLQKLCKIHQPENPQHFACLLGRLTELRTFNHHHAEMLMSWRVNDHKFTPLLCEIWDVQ

C[Si](Cn1cncn1)(c1ccc(F)cc1)c1ccc(F)cc1
Potency [1]: inconclusive: 54.9 µM [inhibitor, single point] | Potency [2]: inconclusive: 77 µM [single point] | Potency [3]: inconclusive: 68.6 µM [cytotoxic, single point] | Potency [4]: inconclusive: 54.9 µM [falling, partial curve] | Potency [5]: inconclusive: 54.9 µM [cytotoxic] | Potency [6]: inconclusive: 22.6 µM [cytotoxic, single point] and active: 38.9 µM | Potency [7]: inconclusive: 22.6 µM [inhibitor, single point] and inconclusive: 110 µM [inhibitor, single point] | Potency [8]: inconclusive: 22.6 µM [rising, single point] and inconclusive: 49 µM [rising, single point] | Potency [9]: inconclusive: 22.6 µM [single point] | activity change, negative = inhibition [9]: inconclusive: -50.2% | Potency [10]: active: 12.7 µM and inconclusive: 34.7 µM [cytotoxic, partial curve] | Potency [11]: inconclusive: 22.6 µM [cytotoxic, single point] and inconclusive: 49 µM [cytotoxic] | Potency [12]: inconclusive: 63.7 µM [cytotoxic, single point] | Potency [13]: inconclusive: 56.8 µM

COc1nn(CSP(=S)(OC)OC)c(=O)s1
Potency [1]: active: 49 µM | Potency [14]: inconclusive: 0.0155 µM [cytotoxic, full curve, poor fit] | Potency [2]: inconclusive: 54.5 µM | Potency [15]: inconclusive: 17.2 nM [cytotoxic, full curve, poor fit] | Potency [4]: inconclusive: 46 µM | Potency [16]: inconclusive: 49 µM [rising, partial curve] | Potency [6]: inconclusive: 54.9 µM [cytotoxic] | Potency [7]: inconclusive: 43.6 µM [rising, partial curve] | Potency [8]: inconclusive: 61.6 µM [rising, partial curve, poor fit] | Potency [17]: inconclusive: 8.22 µM | Potency [18]: inconclusive: 54.9 µM [fluorescent, single point] | Potency [9]: inconclusive: 61.6 µM | Potency [10]: inconclusive: 54.9 µM [cytotoxic, single point] | Potency [11]: inconclusive: 195 nM [cytotoxic, single point] | Potency [12]: inconclusive: 0.0012 µM [rising, full curve, poor fit] | Potency [13]: inconclusive: 21.9 µM [falling, partial curve, poor fit]

c1cc2ccc3cccc4ccc(c1)c2c34
ratio activity, negative = inhibition [1]: inconclusive: 15.5% [at 81.1 µM] | Potency [14]: inconclusive: 7.25 µM [rising, partial curve, poor fit] | Potency [3]: inconclusive: 50.9 µM [cytotoxic, partial curve, poor fit] | Potency [15]: inactive | Potency [4]: inconclusive: 44 µM [activator] | Potency [5]: inconclusive: 64.6 µM [cytotoxic, partial curve, poor fit] | Potency [16]: inconclusive: 32.1 µM [phenotype inactive, full curve, poor fit] | Potency [6]: inconclusive: 28.6 µM [cytotoxic, single point] | Potency [7]: inconclusive: 64.6 µM | activity change, negative = inhibition [8]: inconclusive: -42.4% [at 81.1 µM] | Potency [17]: inconclusive: 0.576 µM [full curve, poor fit] | Potency [19]: inconclusive: 28.6 µM [fluorescent, partial curve, poor fit] | Potency [18]: inconclusive: 57.6 µM | activity change, negative = inhibition [9]: inconclusive: 35.5% [at 78.8 µM] | Potency [10]: inconclusive: 16.2 µM [cytotoxic, partial curve, poor fit] | Potency [11]: inconclusive: 513 nM [cytotoxic, single point] | Potency [12]: inconclusive: 64.6 µM [cytotoxic] | Potency [13]: inconclusive: 12.9 µM [falling, full curve, poor fit]

N#C/C=C/C#N
Potency [1]: inconclusive: 57.5 µM | Potency [14]: inconclusive: 22.9 µM [cytotoxic, full curve] | Potency [2]: inconclusive: 71.8 µM [rising, single point] | Potency [4]: inconclusive: 36.3 µM | Potency [5]: inconclusive: 40.7 µM [cytotoxic, partial curve, poor fit] | activation [16]: inconclusive: -7.06% [at 81.1 µM] | Potency [17]: active: 51.3 µM | activation [18]: inconclusive: -11.2% [at 81.1 µM] | Potency [9]: inactive | Potency [12]: inconclusive: 51.3 µM [rising, single point] | activation [13]: inconclusive: -13.7% [at 78.8 µM]
